In PubChem BioAssay (NCATS):
The other results are listed elsewhere or left out. These are further read-outs of the screen, such as a control signal, another cell line or another target. No call is given for them. The list favours compounds with an active or inconclusive main result. The note in brackets gives the kind of curve behind each potency; many fits are weak.

Experiment: Cell-based coincidence reporter assay to measure PMP22 gene transcription in S16 Pmp22-F2sN cells - Confirmatory screen (AID 1508646)
Details: S16 Schwann cells Pmp22-F2sN, dual luciferase, 24 h
Summary of the method: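 S16 Schwann cells carrying a bioluminescent reporter in the Pmp22 3' UTR (Pmp22-F2sN) were treated with compounds for 24 h at 37C, then lysed; FLuc and then NLuc luminescence were read sequentially with a dual-luciferase kit on a CCD imager.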

[1] = measured here: FLuc reporter channel
[2] = measured here: NLuc reporter channel
Tags give direction and shape of the fitted curve.

| Structure (SMILES) | AC50 [1] | AC50 [2] |
| --- | --- | --- |
| O=C(Cn1c(-c2cccs2)cc2ccccc21)NCCCN1CCN(c2ccc(F)cc2)CC1 | 19.3 µM [falling, partial curve, poor fit] | 21.7 µM [falling, partial curve] |
| CCCC(=O)N(c1ccc2oc(C)c(C(C)=O)c2c1)S(=O)(=O)c1ccc(CC)cc1 | 19.3 µM [falling, partial curve] | 21.7 µM [falling, partial curve, poor fit] |
| COc1ccc(-c2onc(C)c2C)cc1S(=O)(=O)Nc1cc(Cl)ccc1C | 9.68 µM [falling, full curve, poor fit] | 10.9 µM [falling, full curve, poor fit] |
| O=C(NCc1ccccc1Cl)c1ccc(Nc2nc3ccccc3n3nnnc23)cc1 | 15.3 µM [falling, full curve, poor fit] | 15.3 µM [falling, partial curve, poor fit] |
| CCc1ccc(OCC(=O)Nc2cc3oc4ccccc4c3cc2OC)cc1 | 19.3 µM [falling, partial curve] | 17.2 µM [falling, partial curve] |
| CCOc1ccccc1CNC(=O)CCn1c(=O)c2cccn2c2ccc(F)cc21 | 15.3 µM [falling, full curve, poor fit] | 15.3 µM [falling, full curve, poor fit] |
| COc1cc(C2c3c(oc4ccccc4c3=O)C(=O)N2Cc2ccccc2Cl)ccc1O (centres undefined) | 12.2 µM [falling, partial curve] | 4.85 µM [falling, full curve, poor fit] |
| CCc1ccc(C(=O)c2cn(CC(=O)Nc3ccc4c(c3)OCO4)c3ccc(CC)cc3c2=O)cc1 | 12.2 µM [falling, full curve] | 12.2 µM [falling, partial curve] |
| CCOc1ccc(NC(=O)c2c(NC(=O)Cc3ccccc3)sc3c2CCC(C)C3)cc1 (centres undefined) | 13.7 µM [falling, partial curve] | 19.3 µM [falling, partial curve] |
| CCc1ccc(CNc2ncc(-c3cccc(OC)c3)n2C)cc1 | 17.2 µM [falling, partial curve] | 24.3 µM [falling, partial curve, poor fit] |
| Cc1ccc(S(=O)(=O)Cc2ccc(C(=O)N3CCN(c4cccc(C)c4C)CC3)o2)cc1 | 19.3 µM [falling, partial curve, poor fit] | 19.3 µM [falling, partial curve, poor fit] |
| O=C(Cn1cc(C(=O)C2CCCCC2)c2ccccc21)Nc1ccccc1Cl | 24.3 µM [falling, partial curve, poor fit] | 19.3 µM [falling, partial curve, poor fit] |
| COc1ccc(CNC(=O)C2CCCN(c3nnc(C)c4c(C)n(-c5ccc(C)cc5)nc34)C2)cc1 (centres undefined) | 19.3 µM [falling, partial curve, poor fit] | 30.6 µM [falling, single point] |
| CCc1ccccc1NC(=O)Cn1c(=O)n(Cc2ccc3c(c2)OCO3)c(=O)c2ccc(C(=O)NC3CCCCC3)cc21 | 6.85 µM [falling, full curve] | 15.3 µM [falling, partial curve] |
| CCOCCCNC(=O)c1c(NC(=O)c2nc(SC)ncc2Cl)sc2c1CCCC2 | 43.2 µM [falling, single point] | 34.3 µM [falling, partial curve] |
| COc1cc(C2CC(=O)Nc3cc4c(cc32)OCCO4)cc(Br)c1OC (centres undefined) | 19.3 µM [falling, partial curve, poor fit] | 1.09 µM [falling, partial curve, poor fit] |
| COC(=O)c1ccc(CSc2nc3c([nH]c4ccccc43)c(=O)n2-c2cccc(Cl)c2)o1 | 6.11 µM [falling, full curve] | 6.11 µM [falling, full curve] |
| CCOC(=O)c1ccc(N2C(=O)c3n[nH]c(-c4cccs4)c3C2c2ccc(O)c(OC)c2)cc1 (centres undefined) | 24.3 µM [falling, partial curve] | 24.3 µM [falling, partial curve] |
| COc1cccc(CNC(=O)c2cc3c(=O)n(C)c4ccccc4c3n2C)c1 | 24.3 µM [falling, single point] | 43.2 µM [falling, single point] |

| Structure (SMILES) | AC50 [1] | AC50 [2] |
| --- | --- | --- |
| Cc1ccc(CNC(=O)c2ccc(Nc3nc4ccccc4n4nnnc34)cc2)cc1 | 7.69 µM [falling, full curve] | 12.2 µM [falling, partial curve] |
| COCCCn1c(=N)c(C(=O)NCc2ccco2)cc2c(=O)n3cccc(C)c3nc21 | 17.2 µM [falling, partial curve, poor fit] | 19.3 µM [falling, partial curve] |
| CC(NC(=O)c1cccc(Nc2nc3ccccc3n3nnnc23)c1)c1ccccc1 (centres undefined) | 13.7 µM [falling, partial curve] | 15.3 µM [falling, partial curve, poor fit] |
| COc1ccccc1Nc1nn2c(=O)c3ccc(C(=O)Nc4ccc(F)cc4)cc3nc2s1 | 5.44 µM [falling, full curve] | 6.11 µM [falling, full curve] |
| COc1ccccc1N1CCN(c2ncnc3c2cnn3-c2cc(Cl)ccc2C)CC1 | 27.3 µM [falling, partial curve] | 30.6 µM [falling, partial curve] |
| CCOC(=O)c1c(C)c(-c2ccccc2)n(CC(=O)Nc2cc(C)ccc2OC)c1C | 24.3 µM [falling, partial curve, poor fit] | 30.6 µM [falling, single point] |
| Cc1ccc(-n2c(=O)c3ccc(C(=O)NCc4ccccc4Cl)cc3n(CC(=O)Nc3ccc(C)cc3C)c2=O)cc1 | 6.11 µM [falling, full curve] | 10.9 µM [falling, partial curve] |
| CCC1CCCCN1CCCNC(=O)c1ccc2c(c1)N(Cc1ccccc1F)C(=O)c1ccccc1S2(=O)=O (centres undefined) | 21.7 µM [falling, partial curve] | 24.3 µM [falling, partial curve] |
| O=C(NCCCN1CCN(c2ccccc2)CC1)c1ccc2nc(CCc3ccccc3)oc2c1 | 4.32 µM [falling, full curve, poor fit] | 34.3 µM [falling, partial curve] |
| COC(=O)COc1ccc(-c2nnc(Nc3ccc(O)cc3)c3ccccc23)cc1 | 21.7 µM [falling, partial curve] | 21.7 µM [falling, partial curve] |
| Cc1ccc(NC(=O)/C(C#N)=C/c2cc(C)n(-c3ccc(Br)cc3)c2C)cc1C | 24.3 µM [falling, partial curve, poor fit] | 21.7 µM [falling, partial curve] |
| CN(C)CCN(Cc1ccco1)C(=O)c1cc2c(s1)-c1ccccc1OC2 | 34.3 µM [falling, single point] | 43.2 µM [falling, partial curve] |
| CCOC(=O)c1ccc(N2C(=O)c3n[nH]c(-c4ccco4)c3C2c2ccc(O)c(OC)c2)cc1 (centres undefined) | 19.3 µM [falling, partial curve] | 19.3 µM [falling, partial curve] |
| CCOc1ccccc1NC(=O)C(=O)NCCc1sc(-c2cccc(F)c2)nc1C | 17.2 µM [falling, partial curve, poor fit] | 17.2 µM [falling, partial curve, poor fit] |
| COc1ccc(OC)c(Nc2c3c(nc4ccccc24)CCC3)c1 | 1.53 µM [falling, full curve] | 1.37 µM [falling, full curve] |
| COc1ccccc1-c1cc(C(F)(F)F)nc(S(=O)(=O)CCCC(=O)Nc2ccc(F)cc2F)n1 | 15.3 µM [falling, partial curve] | 15.3 µM [falling, partial curve] |
| COc1ccc(NC(=O)c2nc(S(=O)(=O)Cc3ccc(C)cc3)ncc2Cl)cc1 | 3.85 µM [falling, partial curve] | 7.69 µM [falling, partial curve] |
| Cc1cccc(-c2nnn3c2nc(NCc2ccc4c(c2)OCO4)c2ccccc23)c1 | 15.3 µM [falling, partial curve] | 15.3 µM [falling, partial curve] |
